# From the supplement of paper PMC10681739
# Whole data set: some 2,700 sequences, median “arbitrary fluorescence units” near 4,100, cut for the highest 2% near 54,000. The list shows a part of the results.
# Biological target: T1, ETS1 (UniProt P14921)
# T1 sequence: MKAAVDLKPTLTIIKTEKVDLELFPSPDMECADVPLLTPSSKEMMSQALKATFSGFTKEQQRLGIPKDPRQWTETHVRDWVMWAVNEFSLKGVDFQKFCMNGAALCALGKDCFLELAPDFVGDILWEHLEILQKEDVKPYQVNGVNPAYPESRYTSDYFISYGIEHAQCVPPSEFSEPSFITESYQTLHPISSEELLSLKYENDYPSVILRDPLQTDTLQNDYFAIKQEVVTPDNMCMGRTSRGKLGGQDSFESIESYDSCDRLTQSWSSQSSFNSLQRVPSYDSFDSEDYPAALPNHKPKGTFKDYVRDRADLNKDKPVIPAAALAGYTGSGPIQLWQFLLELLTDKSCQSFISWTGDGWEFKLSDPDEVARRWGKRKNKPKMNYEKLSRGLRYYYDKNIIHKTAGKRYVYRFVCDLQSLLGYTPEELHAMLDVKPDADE
# Assay: ETS1 binding intensity (PBM fluorescence) (arbitrary fluorescence units); higher = stronger binding
# Conditions: ETS1 concentration 10 nM
# Experimental: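 gcPBM on wild-type 36-bp genomic probes with two neighbouring ETS1 sites (4-24 bp apart). Recombinant human ETS1 (10 nM) was detected with anti-ETS1 antibody fluorescence. Values are medians over 3 replicate spots. The probes sit in constant array flanks that are not printed.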
row,Sequence,ETS1 binding intensity
1,GATCCACCTCCACTTCCTGTTTCCGCAGCCGCCCTA,28300
2,ATTGAAGCTTCCTGGGAAGAGAACATCCTGAAGATT,4500
3,CTTGTCGCTTTTCCTGGCTCGTTTCCGCTCTGCCTG,6490
4,ACATTTCCCAGCGGGCCGCGCGCCCTCCTTCCGGCA,790
5,CTTCTGTTCGGACGGAAAAAGGAAACGGTAGGCAGT,271
6,GGGCCAGGAAACTTTGTGTTCTTTGCAGGAAGCAGA,234
7,CACAGATCTTCCTGTCTGGAGCATTTCCGGCCCTTC,17300
8,TTAAAATAACATTTCCTACTCTTCCTGCTTCTGGTC,1510
9,CCCTATCCGGGCCTGGGAGGCCTCCTACGGAAGAAA,2290
10,TGTGCACATCCTCCAGAAGATGCACATCCTCCAGAA,2450
11,TGGCAGGAAGACTGCCTCAGCATCTATTTCCTTGCA,278
12,ATCTCACTTCCCTTCCTGCCTTCCTTGGAGCTTCTC,8740
13,CTTGCAGGAAACTACAACTCCCGAAGGGGAAATGGG,687
14,AGGACTTCCCAGACCTCTCCACAATGCAGGAAGTAA,1280
15,AGCCACATAGGAAGCAGGTGGTGTTTCCTGGGCAGG,504
16,TCACATCCCCAGGTGAGTGGCAACCACCGGAAGTGG,9920
17,TGGAGGAAGTTGACTCAGATTGCTGCACTTCCTAGA,777
18,GGGAAAGACCGCTTCCGGTGCTTCCGTCGCTCCTTG,38300
19,GAGAGCCTGCTGTTTCCGCGGATGCTTTACCTTGCC,420
20,GTCGCGGAAGCCGGCGCCTGGCCACCCGGAAGCCAC,823
21,AGAGCCAGGAAGCCTCCTGGAGGGCCGGAAACTTTC,563

row,Sequence,ETS1 binding intensity
1,ATCTGAGGAGGCAGGAAGGCGGAAAGCGAAGGGAGT,326
2,TGCACAAGGAAATGCCATAAAGAAACATCCCGTCCT,373
3,GGAGATAATTTCCGGGTCCCGGCAGGAAAGGGTCAG,25700
4,CCGTGCGGAAGAAAAGGGTTGGCTATTTCCGTGGCC,234
5,GCCCACTTCCTGCGGATGTGGATGCTGGCAACACCC,37800
6,GCTGGGTCACCAGGAAGAAAAGGAAATGGATTTGGT,248
7,ACACAAATTTAGGAAATGTTGCTTCCTTTCCCACCA,387
8,CTGGAGGGGCAAGGAAACACAGGAAATTGCAGTTTC,2070
9,CTCACATCCTGTGTTTGAAAGAAAAATCATCCTGCC,35100
10,AGGCGAGAGGAGGAAGCGGGCGGAAGCCGGTGGCTC,781
11,CAACCTCAGCCGGAAACTACATTTCCCAGCAGGTCG,3970
12,GGTTAGCTTCCTCATAAGGCATCGTTTCCGTGGGTG,900
13,TGGAGACTTCCTCCCGCTCGCAAAGAGGAAACCACT,12200
14,TCCTCGGAAGCCGGCTTCGCCACGTAACTTCCCGGG,229
15,GCGAGGGTGGCTGCTTCCTTCCTGTCCAGAAAACAC,5000
16,CATTTCCTGGAATTCTCTATAACTCTTCCTGCACAG,27100
17,CAGCAGGCCTTCCTGCAGGCCACTTCCCTTCAGAGA,2040
18,AGTGACCCCACAAGTTCCCTTCCTGAAGGAAGTATT,204
19,GTTATGATAACGGAACTACAGTTCCTCCAGGATGGA,195
20,CGGGTCGGAAATGGTGGTCACGAGCGCTTCCGGGTC,3270
21,GACTCTCCAGGAAGAAGGGTAATTTCCTGCCTCCTT,3110

row,Sequence,ETS1 binding intensity
1,CCGGGGTCTCCTTCCTGACCACTTCCTGCCTTTATT,11500
2,CTTGCTTCCGGTGGCTTCACTCACATGCTTCCTCTG,39800
3,AGGGCAGACAGGATATGGTGCGAGGAAGTCTGGGGT,3830
4,CAGTTCTGGGCTTCCCGGCTGAGGAAATGCTGTCAC,243
5,GCGCTGAGCCTTCCGTGCGACCGGATTGGCTGTCGC,205
6,CGTGAGCGGAAGCGGCGCCATTCGTCTTCCGAGCGC,6670
7,TTTCTGGCAGGAAGCCACTGGGCGGAAGTTTGCTGA,2840
8,AGGAGGAGGAAGTGGAGGGTAAGTGCTTCCGGGTCC,3550
9,CAGCACGACTTCCTGGAGCGGGCCGGAAGTGACAAC,21000
10,CTGGCCCTGGCCCTTCCTGCTTCCTGTGACAGTAGC,8310
11,TGAAACAGGAAGTCAGCTTCACAGCAGGAAGCAGAC,16400
12,AGTGACAGGAGGAAGTAGGAGAGGAAATGATGCATG,1350
13,ACCCGGAAGCGCTTCACCCAGCCTGAGCGGAAGAAC,5640
14,ACCCCGGAAGCACATCCTTCATCCTCTACCTTCCTT,15700
15,CGGGACAGGAAGTGTGGACAGGCTCCTTCCTGTTTG,15000
16,GGACAGGAAACCTCTCTGAGTCTCGATTTCCTCCGT,2730
17,CAAAAGATTGAAGGAAGTGAGGAAGTCAGCTGGCTT,545
18,CAGCTCCGGAAATGCTCATAGGCTCCGGAAATGCTC,13000
19,CCGCCCCTTCCGCCGCGGGCGGCAGCTTCCGGCTCG,11600
20,CGTCCCACATCCGCCGACACGCCCCTTCCGGCCTAA,20000
